Where a name gives a salt, the structure may show the parent alone.

The test system of this test is rice leaffolder. Kind of test: whole plant or invertebrate. The settings on record: Cnaphalocrocis medinalis, 72 h, read-out: Adjusted insect mortality (%). The method, then: 10 mg of each of pyribencarb and cartap hydrochloride was each dissolved in 1 ml of acetone (manufactured by Wako Pure Chem Industries, Ltd.) containing Sorgen TW-20 (manufactured by Dai-ichi Kogyo Seiyaku Co., Ltd) and each solution was diluted with water containing 0.02% by volume of a spreader (trade name: Dain (registered trade name), manufactured by Sumitomo Chemical Takeda Agro Company) to attain a predetermined concentration. The water-diluted solution of pyribencarb was mixed with the water-diluted solution of cartap hydrochloride to prepare test sample solutions.
10 mL of each of the test sample solutions per plant was sprayed to 2.5 leaf stage seedlings of rice (Oryza sativa, variety: Nanatsuboshi) planted in a paper pot. After air drying, the rice seedlings were placed in plastic cups (diameter 90 mm, height 30 mm) containing water. Ten first instar larvae of rice leaffolder were released in the cups and the cups were placed in a room (25° C., humidity 60%). […] Based on the observation results, the insect mortality was calculated by equation 2) and the adjusted insect mortality was calculated by equation 3). The tests were carried out in duplicate. […]

For the compound `CN(C)C(CSC(N)=O)CSC(N)=O` [Cartap hydrochloride, cartap hydrochloride], the mortality (commonly the share of the test organisms that died) at 100 ppm was 52.6%. For the compound `COC(=O)NCc1cc(/C(C)=N/OCc2cccc(C)n2)ccc1Cl` [Pyribencarb, pyribencarb], the mortality at 10 ppm was 0%.

For the origin of these results see patent publication US9101137B2 (priority 2011, dated 2015).
